# Assay results: publication PMC12820563, “FoxP3 forms a head-to-head dimer in vivo and stabilizes its multimerization on adjacent microsatellites”
# The other results are listed elsewhere or left out.
# Molecular target: T1, MBP-FoxP1dN (Mus musculus, UniProt P58462 326-579)
# T1 sequence: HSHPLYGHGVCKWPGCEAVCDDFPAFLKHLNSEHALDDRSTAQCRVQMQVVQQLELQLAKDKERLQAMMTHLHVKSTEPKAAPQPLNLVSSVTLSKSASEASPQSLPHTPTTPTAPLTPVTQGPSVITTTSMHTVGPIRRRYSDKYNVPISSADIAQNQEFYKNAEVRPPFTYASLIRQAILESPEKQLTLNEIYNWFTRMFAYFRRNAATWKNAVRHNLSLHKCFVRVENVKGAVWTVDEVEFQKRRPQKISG
# Test: PD-seq (MBP pull-down with sequencing); 20 mM Tris-HCl pH 7.5, 100 mM NaCl, 1.5 mM MgCl2, 0.4 uM protein, 0.1 uM dsDNA library, 30 min, room temperature, amylose pull-down; high values mean tight binding
# Settings: protein: recombinant; tags: His6-MBP; chain copies: 2; dsDNA, one strand shown
# Procedure, shortened: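 Binding is given as reads-per-million enrichment, pull-down over input, with replicates pooled. The bait was an N-terminus-lacking mouse FoxP3 or FoxP1 fragment with a His6-MBP tag, expressed in E. coli and used at 0.4 µM with 0.1 µM Klenow-filled degenerate double-stranded DNA library for 30 min at room temperature in Tris pH 7.5 buffer with NaCl and MgCl2. Amylose resin pull-down with three washes was followed by proteinase K release, PCR barcoding and Illumina sequencing.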
row,Sequence,binding signal
1,GATGATTGTTCTCCCAGCTGATGAATTTGATCAGTCGAGTAAACAAATTTTCCTAATCTTTCTGTTCAAGCGCCATCTAC,0.898 RPM ratio (pull-down/input)
2,GATGATTGTTCTCCCAGCTGATGAATTACTTATATCGAGTAAACAAATTTTCCTAATCTTTCTGTTCAAGCGCCATCTAC,1.22 RPM ratio (pull-down/input)
3,GATGATTGTTCTCCCAGCTGATGAATTATGGGTTTCGAGTAAACAAATTTTCCTAATCTTTCTGTTCAAGCGCCATCTAC,0.913 RPM ratio (pull-down/input)
4,GATGATTGTTCTCCCAGCTGATGAATTCGCTTAATCGAGTAAACAAATTTTCCTAATCTTTCTGTTCAAGCGCCATCTAC,0.936 RPM ratio (pull-down/input)
5,GATGATTGTTCTCCCAGCTGATGAATTTGGGGGATCGAGTAAACAAATTTTCCTAATCTTTCTGTTCAAGCGCCATCTAC,0.828 RPM ratio (pull-down/input)
6,GATGATTGTTCTCCCAGCTGATGAATTGGAACCGTCGAGTAAACAAATTTTCCTAATCTTTCTGTTCAAGCGCCATCTAC,0.795 RPM ratio (pull-down/input)
7,GATGATTGTTCTCCCAGCTGATGAATTACGTTAGTCGAGTAAACAAATTTTCCTAATCTTTCTGTTCAAGCGCCATCTAC,1.05 RPM ratio (pull-down/input)
8,GATGATTGTTCTCCCAGCTGATGAATTTTGGTTTTCGAGTAAACAAATTTTCCTAATCTTTCTGTTCAAGCGCCATCTAC,1.21 RPM ratio (pull-down/input)
9,GATGATTGTTCTCCCAGCTGATGAATTGATGTCGTCGAGTAAACAAATTTTCCTAATCTTTCTGTTCAAGCGCCATCTAC,1.14 RPM ratio (pull-down/input)
10,GATGATTGTTCTCCCAGCTGATGAATTGCAGGTTTCGAGTAAACAAATTTTCCTAATCTTTCTGTTCAAGCGCCATCTAC,1.08 RPM ratio (pull-down/input)
11,GATGATTGTTCTCCCAGCTGATGAATTAACTCTCTCGAGTAAACAAATTTTCCTAATCTTTCTGTTCAAGCGCCATCTAC,0.763 RPM ratio (pull-down/input)
12,GATGATTGTTCTCCCAGCTGATGAATTTTGCTGTTCGAGTAAACAAATTTTCCTAATCTTTCTGTTCAAGCGCCATCTAC,1.64 RPM ratio (pull-down/input)
13,GATGATTGTTCTCCCAGCTGATGAATTAGCGAAATCGAGTAAACAAATTTTCCTAATCTTTCTGTTCAAGCGCCATCTAC,0.999 RPM ratio (pull-down/input)
14,GATGATTGTTCTCCCAGCTGATGAATTGCATGGTTCGAGTAAACAAATTTTCCTAATCTTTCTGTTCAAGCGCCATCTAC,1.06 RPM ratio (pull-down/input)
15,GATGATTGTTCTCCCAGCTGATGAATTCCGGCCCTCGAGTAAACAAATTTTCCTAATCTTTCTGTTCAAGCGCCATCTAC,0.716 RPM ratio (pull-down/input)
16,GATGATTGTTCTCCCAGCTGATGAATTATTCTTATCGAGTAAACAAATTTTCCTAATCTTTCTGTTCAAGCGCCATCTAC,1.08 RPM ratio (pull-down/input)
17,GATGATTGTTCTCCCAGCTGATGAATTCGCACTATCGAGTAAACAAATTTTCCTAATCTTTCTGTTCAAGCGCCATCTAC,0.93 RPM ratio (pull-down/input)
18,GATGATTGTTCTCCCAGCTGATGAATTATGCATTTCGAGTAAACAAATTTTCCTAATCTTTCTGTTCAAGCGCCATCTAC,1.52 RPM ratio (pull-down/input)
19,GATGATTGTTCTCCCAGCTGATGAATTCAACGAATCGAGTAAACAAATTTTCCTAATCTTTCTGTTCAAGCGCCATCTAC,0.934 RPM ratio (pull-down/input)
20,GATGATTGTTCTCCCAGCTGATGAATTCAAACTTTCGAGTAAACAAATTTTCCTAATCTTTCTGTTCAAGCGCCATCTAC,1.03 RPM ratio (pull-down/input)
21,GATGATTGTTCTCCCAGCTGATGAATTGGTATCATCGAGTAAACAAATTTTCCTAATCTTTCTGTTCAAGCGCCATCTAC,1.18 RPM ratio (pull-down/input)

row,Sequence,binding signal
1,GATGATTGTTCTCCCAGCTGATGAATTATACCTCTCGAGTAAACAAATTTTCCTAATCTTTCTGTTCAAGCGCCATCTAC,0.896 RPM ratio (pull-down/input)
2,GATGATTGTTCTCCCAGCTGATGAATTTGCTCACTCGAGTAAACAAATTTTCCTAATCTTTCTGTTCAAGCGCCATCTAC,0.971 RPM ratio (pull-down/input)
3,GATGATTGTTCTCCCAGCTGATGAATTGGAGGAGTCGAGTAAACAAATTTTCCTAATCTTTCTGTTCAAGCGCCATCTAC,0.76 RPM ratio (pull-down/input)
4,GATGATTGTTCTCCCAGCTGATGAATTATTTGCGTCGAGTAAACAAATTTTCCTAATCTTTCTGTTCAAGCGCCATCTAC,1.66 RPM ratio (pull-down/input)
5,GATGATTGTTCTCCCAGCTGATGAATTCGAAGCCTCGAGTAAACAAATTTTCCTAATCTTTCTGTTCAAGCGCCATCTAC,0.807 RPM ratio (pull-down/input)
6,GATGATTGTTCTCCCAGCTGATGAATTTAATTGTTCGAGTAAACAAATTTTCCTAATCTTTCTGTTCAAGCGCCATCTAC,1.34 RPM ratio (pull-down/input)
7,GATGATTGTTCTCCCAGCTGATGAATTGAAATTATCGAGTAAACAAATTTTCCTAATCTTTCTGTTCAAGCGCCATCTAC,1.01 RPM ratio (pull-down/input)
8,GATGATTGTTCTCCCAGCTGATGAATTCTTACCCTCGAGTAAACAAATTTTCCTAATCTTTCTGTTCAAGCGCCATCTAC,0.832 RPM ratio (pull-down/input)
9,GATGATTGTTCTCCCAGCTGATGAATTTAGTCTATCGAGTAAACAAATTTTCCTAATCTTTCTGTTCAAGCGCCATCTAC,1.08 RPM ratio (pull-down/input)
10,GATGATTGTTCTCCCAGCTGATGAATTCTTCTTGTCGAGTAAACAAATTTTCCTAATCTTTCTGTTCAAGCGCCATCTAC,0.961 RPM ratio (pull-down/input)
11,GATGATTGTTCTCCCAGCTGATGAATTGTGGAACTCGAGTAAACAAATTTTCCTAATCTTTCTGTTCAAGCGCCATCTAC,0.871 RPM ratio (pull-down/input)
12,GATGATTGTTCTCCCAGCTGATGAATTGCGACATTCGAGTAAACAAATTTTCCTAATCTTTCTGTTCAAGCGCCATCTAC,1.17 RPM ratio (pull-down/input)
13,GATGATTGTTCTCCCAGCTGATGAATTACGGGATTCGAGTAAACAAATTTTCCTAATCTTTCTGTTCAAGCGCCATCTAC,0.949 RPM ratio (pull-down/input)
14,GATGATTGTTCTCCCAGCTGATGAATTCGCATATTCGAGTAAACAAATTTTCCTAATCTTTCTGTTCAAGCGCCATCTAC,0.873 RPM ratio (pull-down/input)
15,GATGATTGTTCTCCCAGCTGATGAATTGGAAGAGTCGAGTAAACAAATTTTCCTAATCTTTCTGTTCAAGCGCCATCTAC,0.869 RPM ratio (pull-down/input)
16,GATGATTGTTCTCCCAGCTGATGAATTCTTGAGGTCGAGTAAACAAATTTTCCTAATCTTTCTGTTCAAGCGCCATCTAC,0.819 RPM ratio (pull-down/input)
17,GATGATTGTTCTCCCAGCTGATGAATTAGAAACTTCGAGTAAACAAATTTTCCTAATCTTTCTGTTCAAGCGCCATCTAC,0.892 RPM ratio (pull-down/input)
18,GATGATTGTTCTCCCAGCTGATGAATTGGCGCGCTCGAGTAAACAAATTTTCCTAATCTTTCTGTTCAAGCGCCATCTAC,0.839 RPM ratio (pull-down/input)
19,GATGATTGTTCTCCCAGCTGATGAATTTACGAAGTCGAGTAAACAAATTTTCCTAATCTTTCTGTTCAAGCGCCATCTAC,1.1 RPM ratio (pull-down/input)
20,GATGATTGTTCTCCCAGCTGATGAATTCTATAGCTCGAGTAAACAAATTTTCCTAATCTTTCTGTTCAAGCGCCATCTAC,0.862 RPM ratio (pull-down/input)
21,GATGATTGTTCTCCCAGCTGATGAATTACGGATCTCGAGTAAACAAATTTTCCTAATCTTTCTGTTCAAGCGCCATCTAC,0.912 RPM ratio (pull-down/input)

row,Sequence,binding signal
1,GATGATTGTTCTCCCAGCTGATGAATTCGCTCAGTCGAGTAAACAAATTTTCCTAATCTTTCTGTTCAAGCGCCATCTAC,0.788 RPM ratio (pull-down/input)
2,GATGATTGTTCTCCCAGCTGATGAATTCAATGGATCGAGTAAACAAATTTTCCTAATCTTTCTGTTCAAGCGCCATCTAC,0.883 RPM ratio (pull-down/input)
3,GATGATTGTTCTCCCAGCTGATGAATTCCAACGCTCGAGTAAACAAATTTTCCTAATCTTTCTGTTCAAGCGCCATCTAC,0.799 RPM ratio (pull-down/input)
4,GATGATTGTTCTCCCAGCTGATGAATTCCCTCTCTCGAGTAAACAAATTTTCCTAATCTTTCTGTTCAAGCGCCATCTAC,0.765 RPM ratio (pull-down/input)
5,GATGATTGTTCTCCCAGCTGATGAATTGACGGCGTCGAGTAAACAAATTTTCCTAATCTTTCTGTTCAAGCGCCATCTAC,0.994 RPM ratio (pull-down/input)
6,GATGATTGTTCTCCCAGCTGATGAATTATCACACTCGAGTAAACAAATTTTCCTAATCTTTCTGTTCAAGCGCCATCTAC,1.1 RPM ratio (pull-down/input)
7,GATGATTGTTCTCCCAGCTGATGAATTAATGCCGTCGAGTAAACAAATTTTCCTAATCTTTCTGTTCAAGCGCCATCTAC,1.11 RPM ratio (pull-down/input)
8,GATGATTGTTCTCCCAGCTGATGAATTGCTACACTCGAGTAAACAAATTTTCCTAATCTTTCTGTTCAAGCGCCATCTAC,1.17 RPM ratio (pull-down/input)
9,GATGATTGTTCTCCCAGCTGATGAATTGTGGCGTTCGAGTAAACAAATTTTCCTAATCTTTCTGTTCAAGCGCCATCTAC,1.18 RPM ratio (pull-down/input)
10,GATGATTGTTCTCCCAGCTGATGAATTGGACGCGTCGAGTAAACAAATTTTCCTAATCTTTCTGTTCAAGCGCCATCTAC,0.926 RPM ratio (pull-down/input)
11,GATGATTGTTCTCCCAGCTGATGAATTCCCGAAGTCGAGTAAACAAATTTTCCTAATCTTTCTGTTCAAGCGCCATCTAC,0.724 RPM ratio (pull-down/input)
12,GATGATTGTTCTCCCAGCTGATGAATTGACCATCTCGAGTAAACAAATTTTCCTAATCTTTCTGTTCAAGCGCCATCTAC,0.882 RPM ratio (pull-down/input)
13,GATGATTGTTCTCCCAGCTGATGAATTACCGAGCTCGAGTAAACAAATTTTCCTAATCTTTCTGTTCAAGCGCCATCTAC,0.919 RPM ratio (pull-down/input)
14,GATGATTGTTCTCCCAGCTGATGAATTGTAACGTTCGAGTAAACAAATTTTCCTAATCTTTCTGTTCAAGCGCCATCTAC,0.999 RPM ratio (pull-down/input)
15,GATGATTGTTCTCCCAGCTGATGAATTACCGAAATCGAGTAAACAAATTTTCCTAATCTTTCTGTTCAAGCGCCATCTAC,1.1 RPM ratio (pull-down/input)
16,GATGATTGTTCTCCCAGCTGATGAATTCCTACTGTCGAGTAAACAAATTTTCCTAATCTTTCTGTTCAAGCGCCATCTAC,0.85 RPM ratio (pull-down/input)
17,GATGATTGTTCTCCCAGCTGATGAATTTGTTATATCGAGTAAACAAATTTTCCTAATCTTTCTGTTCAAGCGCCATCTAC,1.5 RPM ratio (pull-down/input)
18,GATGATTGTTCTCCCAGCTGATGAATTTTCACAGTCGAGTAAACAAATTTTCCTAATCTTTCTGTTCAAGCGCCATCTAC,0.928 RPM ratio (pull-down/input)
19,GATGATTGTTCTCCCAGCTGATGAATTTTCATGGTCGAGTAAACAAATTTTCCTAATCTTTCTGTTCAAGCGCCATCTAC,0.906 RPM ratio (pull-down/input)
20,GATGATTGTTCTCCCAGCTGATGAATTCCTCTTATCGAGTAAACAAATTTTCCTAATCTTTCTGTTCAAGCGCCATCTAC,0.911 RPM ratio (pull-down/input)
21,GATGATTGTTCTCCCAGCTGATGAATTGCCGTAGTCGAGTAAACAAATTTTCCTAATCTTTCTGTTCAAGCGCCATCTAC,0.972 RPM ratio (pull-down/input)
